Reference: the supplement of paper PMC10338343
± gives the standard deviation. This is a selection; strong and weak results do not stand in their true shares.

test system: MIWI (PIWIL1) piRISC loaded with piRNA #1 (30 nt); experiment: pre-steady-state target cleavage rate (min^-1); MIWI and MILI are mouse PIWI proteins and EfPiwi is from a freshwater sponge; tags in brackets are library labels; higher = faster piRNA-guided slicing of the target; details: guide: piRNA #1 5'p-UGAGGUAGUAGGUUGUAUAGUAUCCAGAGG; auxiliary factor: 500 nM mouse GTSF1
Method in brief: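 A burst-and-steady-state fit was used to obtain the pre-steady-state cleavage rate. The input data were sequencing reads of uncleaved targets, normalised to depth and to weakly complementary targets, from a […] transcribed, DNA-blocked target RNA library mixed with 1 nM active affinity-purified piRISC holding one synthetic guide, with or without 500 nM GTSF1 partner protein, in HEPES–potassium acetate buffer at 33 °C for 0–8 or 0–960 min. Three trials were pooled and k3 was capped at 0.0001 min^-1.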
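Also: 1 nM active piRISC with 0.1 nM target library at 33 °C single turnover.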

Sequence	pre-steady-state target cleavage rate
GGAGACCUUACUAUACAACCUACUAACCUCA	1.25 ± 0.081
GGAGACGAUACUUUACUACCUACUACCUCA	0.861 ± 0.078
GGUCUGCAUACUAUACAACCUAGUACCUCA	0.551 ± 0.054
GGAGACCUAACUAUACAACCUACCUACCUCA	0.458 ± 0.04
CGUCUGGAUACUAUACAACCUAGUACCUCA	0.164 ± 0.026
GGUCUGGAUACUAAACAAGCUACUACCUCA	1.09 ± 0.059
GGUCAGGAUACUAUACAACCUAGUACCUCA	0.346 ± 0.034
GGAGUGGAUACUAUAUAACCUACUACCUCA	1.77 ± 0.092
GCUCUGGAUACUAUACUACCUACUACCUCA	1.5 ± 0.088
GGAGUGGAAUACUAUACAACCUACUACCUCA	1.53 ± 0.096
GGAGAGGUAUACUAUACAACCUACUACCUCA	0.49 ± 0.045
GGAGAGGAACUAUACAACCUACUACCUCA	1.46 ± 0.08
GGAGACCUAACUUUACAACCUACUUCCUCA	0.00752 ± 0.0055
GGAGAGGUUACUAUACAAGCUACUACCUCA	0.175 ± 0.023
GGAGACCUAUCUAUACAAGCUACUACCUCA	0.446 ± 0.029
GCUCUGGUACUAUACAACCUACUACCUCA	1.67 ± 0.09
GGUCUGGUUACUAUUCAACCUACUACCUCA	1.64 ± 0.11
GGAGUGGAUACUAUACAACAUACUACCUCA	1.15 ± 0.064
GGAGACCAUACUAUACAACCAUGUACCUCA	< 0.0001
GGAGACCAUACUAUACAACCUACUACGUCA	0.981 ± 0.072

Sequence	pre-steady-state target cleavage rate
GCUCUGGAUACUUUACAACCUACUACGUCA	0.886 ± 0.062
GCUCUCGAUACUAUACAAGCUACUACCUCA	1.29 ± 0.062
GCUCUGGAUACUAUACAACCUAUUACCUCA	1.88 ± 0.13
GCUCUGGAUACAAUACAACCUUCUACCUCA	0.619 ± 0.036
GGAGACCAUACUAUACAACCUACUACGUGA	0.532 ± 0.048
GCUCUCGAUACUAUACAACCUAGUACCUCA	0.496 ± 0.057
GGAGACCUAUGAUAUGUACCUUCUUCCUCA	< 0.0001
GGAGUGGAUACUAUACAUGCUACUACCUCA	0.691 ± 0.042
GGAGUGGAUUCUAUACAACCUACUACCUCA	1.63 ± 0.096
GGAGACCUAACAAUACAACCUAGUACCUCA	0.0122 ± 0.0065
GGACUGGAUAGUAUACAACCUAGUACCUCA	0.483 ± 0.056
GGAGAGGAUACUAUACAACCGACUACCUCA	0.0128 ± 0.0024
GGAGACCUAUGAUAAGAUCCUACUACCUCA	< 0.0001
GGAGACGAUACUAUUGUACCUACUACCUCA	0.0678 ± 0.0085
GGUCUGGAUACUAUACAUCCUACUACGUCA	0.396 ± 0.045
GGACUCGAUACUAAACAACCUACUACCUCA	1.62 ± 0.12
GGACUGCAUACUAUAGAACCUACUACCUCA	1.26 ± 0.079
GGAGACCUAUGAUUACAACCUACUCCUCA	< 0.0001
GGAGACCUAUGUAAUACAACCUACUACCUCA	0.00453 ± 0.0039
GGACUGGAUACUAUACGACCUACUACCUCA	1.55 ± 0.11
